Results reported in the supplement of paper PMC12217912.
The list shows a part of the results. Sequences were assembled here from the parent chain. Inactive controls read about 0.05.

B1: TEV protease; numbered along this chain (parent)
chain: MGESLFKGPRDYNPISSSICHLTNESDGHTTSLYGIGFGPFIITNKHLFRRNNGTLVVQSLHGVFKVKDTTTLQQHLVDGRDMIIIRMPKDFPPFPQKLKFREPQREERICLVTTNFQTKSMSSMVSDTSCTFPSGDGIFWKHWIQTKDGQCGSPLVSTRDGFIVGIHSASNFTNTNNYFTSVPKNFMELLTNQEAQQWVSGWRLNADSVLWGGHKVFMVKPEEPFQPVKEATQL

Variants of: B1
Assay: raw area under fraction-flipped curve 0-4 h after induction (AUC4h, not background-subtracted), DNA-recorder readout of cleavage of the substrate (dimensionless); higher = more cleavage of the substrate by the protease variant
Settings: temperature: 34 °C; time window: 0-4 h after rhamnose induction
Protocol: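 In vivo DNA recorder in E. coli TOP10(DE3) ΔrhaA at 34 °C. Each TEVp single-site mutant (parent TEVp 0) is paired with a single-site variant of the 7-mer TEVs (canonical ENLYFQ|S). The substrate sits between flexible linkers in a Bxb1-sfGFP-TEVs-SsrA fusion, so cleavage stabilises Bxb1 and speeds flipping of a recombination array, read by NGS. The value is the raw area under the fraction-flipped curve over 0-4 h after rhamnose induction (AUC4h), with ≥20 reads per time point. It is not background-subtracted; inactive controls average about 0.047.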
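Also: Bxb1 expression induced with 0.2% (w/v) L-rhamnose at OD600 near 0.5, cultures sampled hourly, flipped fraction per protease–substrate barcode pair counted by paired-end Illumina sequencing.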

Variant	area with substrate ENAYFQS	area with substrate ENDYFQS	area with substrate ENFYFQS	area with substrate ENGYFQS	area with substrate ENNYFQS	area with substrate ENPYFQS	area with substrate ENRYFQS	area with substrate ENSYFQS	area with substrate ENTYFQS	area with substrate ENVYFQS	area with substrate ENCYFQS	area with substrate ENEYFQS	area with substrate ENHYFQS	area with substrate ENMYFQS	area with substrate ENQYFQS	area with substrate ENKYFQS	area with substrate ENWYFQS	area with substrate ENYYFQS	area with substrate ENIYFQS
R10C	0.0596	0.0529	0.0561	0.0678	0.0677	0.0499	0.0537	0.0616	0.0675	0.0722									
R10V	0.0614	0.0643	0.0464	0.0689		0.0553	0.0559	0.0538	0.0916	0.07	0.0638	0.06	0.0552	0.0784	0.0541				
R10P	0.0632		0.0589		0.0616		0.0517	0.101		0.0843	0.0804		0.0671		0.0637	0.0662	0.0441	0.0484	
E25P	0.0494	0.065	0.0527	0.0444			0.056	0.0606			0.0166	0.0631		0.0632	0.0635			0.0556	0.0748
T23S	0.0841	0.0651	0.0582	0.0807	0.0559	0.0701	0.0656	0.0633	0.0717	0.0681	0.065	0.0657	0.0548		0.059		0.0149		0.0971
T23R	0.0577	0.0641		0.0657	0.0541	0.0635	0.0523	0.06	0.0508	0.0834	0.0649	0.0641	0.0621		0.0528			0.0478	0.101
C20M	0.0648	0.0517	0.0563	0.0565	0.0579		0.0545	0.0623	0.0588	0.0664	0.0678	0.0516	0.0503		0.0575			0.0534	0.0877
C20R	0.051	0.0463	0.0507	0.0409	0.0506	0.0457	0.0453	0.0621	0.0436	0.0489	0.0496	0.0558	0.0594		0.0628	0.0391		0.0451	
S17F	0.0611	0.0594		0.0602	0.0547	0.054	0.0602	0.083		0.0698	0.062	0.0561	0.0604		0.0562	0.0575	0.0043	0.0639	0.104
S17Q	0.0683	0.0606	0.0645	0.0524	0.0704	0.0433	0.038		0.0622	0.0761	0.0655	0.0588	0.0386		0.0569	0		0.0735	0.11
S17D	0.064	0.0569	0.079	0.0603	0.058	0.0697	0.0635	0.0626	0.0635	0.0933	0.0554	0.0569	0.0594	0.0862	0.0617	0.0699	0.0656		0.113
S4G	0.0658	0.0499	0.0605	0.0589	0.064	0.0619	0.0526	0.0803	0.0635	0.0985		0.0582	0.0654		0.061	0.0531	0.0562	0.0644	0.119
S4N	0.0592	0.0555		0.0594	0.059		0.0571	0.0602	0.0627	0.0693	0.0658	0.0501	0.057		0.0611	0.0283		0.047	
S4M	0.065	0.0752	0.0575		0.0217	0.0617		0.057	0.0659	0.0711	0.0684	0.0622	0.0657	0.0798	0.0584	0.0553	0.0573		
I19H	0.0409	0.0552	0.0456	0.049	0.0629	0.0565	0.0493	0.0567	0.0486	0.0553	0.0535	0.0456	0.0609	0.0572	0.06	0.0628	0.0425		0.117
N13R	0.0637	0.0535	0.0622	0.0648	0.0599	0.0536		0.0666	0.0653	0.0639	0.073	0.0637	0.0705		0.0639		0.0511	0.067	0.0952
N13G	0.0547	0.0683	0.0614	0.0612	0.0677	0.059	0.0694	0.0621	0.0667	0.0741	0.0639	0.0623			0.0638		0.0353	0.0508	0.0785
N13K	0.064	0.0595	0.0573	0.0672	0.0515	0.0623	0.0614	0.0662	0.052	0.062	0.078	0.066	0.0563	0.0756	0.0667	0.0616		0.0642	0.0825
L22W	0.0588	0.051	0.0467	0.0424	0.0486		0.0629	0.0559	0.0517	0.0582		0.0398			0.0511	0.055		0.0537	
L22K	0.0434	0.0477		0.0567	0.0534		0.0465	0.0349	0.048	0.0463	0.0351	0.0496	0.0406	0.0298	0.0477		0.0446		0.0543
L22V	0.0646	0.0711	0.061	0.075	0.0536	0.0532	0.0573	0.0463	0.058	0.0489	0.0733	0.0819	0.0816	0.0843	0.0629	0.0601	0.0442	0.0535	0.083
D11S	0.0636	0.0656	0.0624		0.0654	0.0612	0.0512	0.0628	0.0583	0.0642		0.0492	0.0616	0.0792	0.0582		0.065	0.0526	0.0887
D11L	0.0597	0.0643	0.0643	0.0634	0.0632	0.0676	0.0488	0.063	0.0563	0.0774	0.0662	0.0642	0.0642	0.0567	0.0655	0.0608	0.057	0.0501	0.0808
